According to PMC4274898:
Results are given in words; binding and its absence hold for the method and conditions named. Some entries that bind do so weakly or less than the wild type.

T1: ARF12 (Arabidopsis thaliana) (UniProt Q9XID4)
T1 sequence: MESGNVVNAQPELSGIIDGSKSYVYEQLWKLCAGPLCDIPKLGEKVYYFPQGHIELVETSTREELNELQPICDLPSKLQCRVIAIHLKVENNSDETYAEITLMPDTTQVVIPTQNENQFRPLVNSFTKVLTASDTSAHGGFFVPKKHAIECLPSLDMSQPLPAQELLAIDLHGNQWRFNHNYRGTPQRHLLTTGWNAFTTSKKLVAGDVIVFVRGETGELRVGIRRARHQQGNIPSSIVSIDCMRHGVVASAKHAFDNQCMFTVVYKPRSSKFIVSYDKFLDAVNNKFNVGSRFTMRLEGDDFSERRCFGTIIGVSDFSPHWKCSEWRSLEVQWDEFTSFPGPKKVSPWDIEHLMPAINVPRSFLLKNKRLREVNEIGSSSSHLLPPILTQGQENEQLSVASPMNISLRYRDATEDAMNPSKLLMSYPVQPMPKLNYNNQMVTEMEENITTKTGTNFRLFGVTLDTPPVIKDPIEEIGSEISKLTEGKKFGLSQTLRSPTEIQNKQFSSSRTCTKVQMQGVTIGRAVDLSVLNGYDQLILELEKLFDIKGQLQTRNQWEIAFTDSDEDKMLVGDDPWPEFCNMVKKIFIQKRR

T2: ARF3 (Arabidopsis thaliana) (UniProt O23661)
T2 sequence: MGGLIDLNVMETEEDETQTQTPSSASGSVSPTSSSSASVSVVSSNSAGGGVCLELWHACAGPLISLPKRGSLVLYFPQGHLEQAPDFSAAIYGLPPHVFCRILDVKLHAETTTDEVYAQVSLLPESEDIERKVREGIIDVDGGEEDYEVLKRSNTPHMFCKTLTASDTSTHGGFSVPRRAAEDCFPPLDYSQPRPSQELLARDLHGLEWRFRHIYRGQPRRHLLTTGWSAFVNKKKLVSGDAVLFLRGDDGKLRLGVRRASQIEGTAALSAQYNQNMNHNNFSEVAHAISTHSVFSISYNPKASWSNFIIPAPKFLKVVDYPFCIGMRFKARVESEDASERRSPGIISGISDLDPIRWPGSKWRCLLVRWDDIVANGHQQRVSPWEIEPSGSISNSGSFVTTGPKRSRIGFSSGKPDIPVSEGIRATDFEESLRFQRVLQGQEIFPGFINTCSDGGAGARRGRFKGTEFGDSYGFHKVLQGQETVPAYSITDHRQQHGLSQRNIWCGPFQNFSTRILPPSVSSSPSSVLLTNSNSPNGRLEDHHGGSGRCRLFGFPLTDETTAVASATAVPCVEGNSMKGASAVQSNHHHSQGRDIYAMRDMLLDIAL

T3: ARF7 (Arabidopsis thaliana) (UniProt P93022)
T3 sequence: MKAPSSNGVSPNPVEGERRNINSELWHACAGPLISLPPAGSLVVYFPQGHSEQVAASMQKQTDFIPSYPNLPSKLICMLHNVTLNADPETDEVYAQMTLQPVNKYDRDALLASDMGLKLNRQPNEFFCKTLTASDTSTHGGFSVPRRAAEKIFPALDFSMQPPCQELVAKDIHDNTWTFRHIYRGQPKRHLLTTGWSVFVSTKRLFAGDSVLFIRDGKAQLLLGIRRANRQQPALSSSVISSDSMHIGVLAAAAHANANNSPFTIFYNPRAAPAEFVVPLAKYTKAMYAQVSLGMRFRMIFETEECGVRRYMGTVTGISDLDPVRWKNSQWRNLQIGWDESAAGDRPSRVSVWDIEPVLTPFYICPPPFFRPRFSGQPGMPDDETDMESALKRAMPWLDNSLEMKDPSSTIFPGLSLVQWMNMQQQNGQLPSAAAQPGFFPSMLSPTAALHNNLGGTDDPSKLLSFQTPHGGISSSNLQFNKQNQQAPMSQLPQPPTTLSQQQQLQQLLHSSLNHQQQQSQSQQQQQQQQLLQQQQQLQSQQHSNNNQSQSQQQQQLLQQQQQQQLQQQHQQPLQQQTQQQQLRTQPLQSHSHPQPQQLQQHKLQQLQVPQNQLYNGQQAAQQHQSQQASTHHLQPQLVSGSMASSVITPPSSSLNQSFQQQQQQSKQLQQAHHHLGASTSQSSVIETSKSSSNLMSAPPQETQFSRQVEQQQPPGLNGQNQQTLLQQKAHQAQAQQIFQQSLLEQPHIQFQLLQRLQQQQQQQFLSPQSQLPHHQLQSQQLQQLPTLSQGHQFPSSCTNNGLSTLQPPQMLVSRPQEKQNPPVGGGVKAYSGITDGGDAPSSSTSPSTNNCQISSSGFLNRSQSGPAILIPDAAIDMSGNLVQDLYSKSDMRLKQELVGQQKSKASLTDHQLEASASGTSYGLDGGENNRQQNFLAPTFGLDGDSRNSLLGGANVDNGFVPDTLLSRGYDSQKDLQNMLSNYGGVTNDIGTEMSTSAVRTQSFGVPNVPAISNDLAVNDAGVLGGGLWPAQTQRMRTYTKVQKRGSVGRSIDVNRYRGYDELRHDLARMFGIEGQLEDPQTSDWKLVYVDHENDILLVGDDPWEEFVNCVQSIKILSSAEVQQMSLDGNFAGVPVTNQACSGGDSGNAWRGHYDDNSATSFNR


Columns and labels:
Assay in all cases: two-hybrid; S. cerevisiae AH109 co-transformed with pGBKT7-ARF (bait) and pGADT7-Aux/IAA (prey); growth on SD/-Ade-His-Leu-Trp against SD/-Leu/-Trp; at least 10 independent colonies; serial dilutions for strength
[1] = target: T1, ARF12 (Arabidopsis thaliana)
[2] = target: T2, ARF3 (Arabidopsis thaliana)
[3] = target: T3, ARF7 (Arabidopsis thaliana)

Row | binding [1] | binding [2] | binding [3] | Binder
1 | no binding | no binding | binds | Aux/IAA4 (protein, UniProt P33077 1-186) MEKVDVYDELVNLKATELRLGLPGTEETVSCGKSNKRVLPEATEKEIESTGKTETASPPKAQIVGWPPVRSYRKNNVQTKKSESEGQGNYVKVSMDGAPYLRKIDLTMYKQYPELMKSLENMFKFSVGEYFEREGYKGSDFVPTYEDKDGDWMLVGDVPWEMFVSSCKRLRIMKGSEVKGLGCGGL
2 | no binding | no binding | binds | Aux/IAA5 (protein, UniProt P33078 1-163) MANESNNLGLEITELRLGLPGDIVVSGESISGKKRASPEVEIDLKCEPAKKSQVVGWPPVCSYRRKNSLERTKSSYVKVSVDGAAFLRKIDLEMYKCYQDLASALQILFGCYINFDDTLKESECVPIYEDKDGDWMLAGDVPWEMFLGSCKRLRIMKRSCNRG
3 | no binding | no binding | binds | Aux/IAA34 (protein, UniProt Q9C5X0 1-185) MYCSDPPHPLHLVASDKQQKDHKLILSWKKPTMDSDPLGVFPNSPKYHPYYSQTTEFGGVIDLGLSLRTIQHEIYHSSGQRYCSNEGYRRKWGYVKVTMDGLVVGRKVCVLDHGSYSTLAHQLEDMFGMQSVSGLRLFQMESEFCLVYRDEEGLWRNAGDVPWNEFIESVERLRITRRNDAVLPF
